Data taken from the RNAGym collection of RNA variant scans (doi:10.7554/elife.90254).
The source gives no read counts; variants with many changes may rest on few reads.

B1: LINE1-full (parent)
chain: UACGUAGGUGGUUUUCCCCUGAUAGUGCUAAGGGGGCCUGGAAGUUUGGACUGGGCAGAGCUCAACACAGCGUGGCAAAGUGGCUGUGGCUAGACUGCCUCUCUGGAUUCCUCGUCACUCAGCAGGGCAUCUCUGAGAGAAAUGCC

Variants of: B1
Assay: self-cleavage, relative activity (ratio to wild type); higher = more cleavage; in vitro, sequencing; the parent is a self-cleaving ribozyme

Variant	self-cleavage
UACGUAGGUGGUCUUCCCCUGAUAGUGCUAAGGGGGCCUGGAAGUUUGGACUGGGCAGAGCUCAACACAGCGUGGCUAAGUGGCUGUGGCUAGACUGCCUCUCUGGAUUCCUCGUCACUCAGCAGGGCAUCUCAGAGGGAAAUGCC [U13C A77U U134A A138G]	0.84
UACGUAGGUGGUCUUCCCCUGAUAGUGCUAAGGGGGCCUGGAAGUUUGGACUGGGCAGAGCUCAACACAGCGUGGCGAAGUGGCUGUGGCUAGACUGCCUCUCUGGAUUCCUCGUCACUCAGCGGGGCAUCUCUGAGAGAAAUGCC [U13C A77G A124G]	1.41
UACGUAGGUGGUCUUCCCCUGAUAGUGCUAAGGGGGCCUGGAAGUUUGGACUGGGCAGGGCUCAACACAGCGUAGCAAAGUGGCUGUGGCUAGACUGCCUCUCUGGAUUCCUCGUCACUCAGCAGGGCAUCUCUGAGAGAAAUGCC [U13C A59G G74A]	0
UACGUAGGUGGUCUUCCCCUGAUAGUGCUAAGGGGGCCUGGAAGUUUGGACUGGGCAGGGCUCAACACAGCGUGGCAAAGUGGCUGUGGCUAGACUGCCUCUCUGGAUUCCUCGUCACUCAGCAGGGCAUAUCUGAGAGAAAUGCC [U13C A59G C131A]	0
UACGUAGGUGGUCUUCCCCUGAUAGUGCUAAGGGGGCCUGGAAGUUUGGACUGGGCAGAGCUCUACACAGCGUGGCAAAGUGGCUGUGGCUAGACUGCCACUCUGGAUUCCUCGUCACUCAGCAGGGCAUCUCUGAGAGAAAUGCC [U13C A64U U100A]	0.34
UACGUAGGUGGUCUUCCCCUGAUAGUGCUAAGGGGGCCUGGAAGUUUGGACUGGGCAGAGCUCAGCACAGCGUGGCAAAGUGGCUGUGGCUAGACUGCCUCUUUGGAUUCCUCGUCACUCAGCAGGGCAUCUCUGAGAGAAAUGCC [U13C A65G C103U]	0.1
UACGUAGGUGGUCUUCCCCUGAUAGUGCUAAGGGGGCCUGGAAGUUUGGACUGGGCUGAGCUCAACACAGCGUGGCAAAGUGGCUGUGGCUAGGCUGCCUCUCUGGAUUCCUCGUCAGUCAGCAGGGCAUCUCUGAGAGAAAUGCC [U13C A57U A94G C118G]	0
UACGUAGGUGGUCUUCCCCUGAUAGUGCUAAGGGGGCCUGGAAGUUUGGACUGGGCAGAGCUCAGCACCGCGUGGCAAAGUGGCUGUGGCUAGACUGCCUCUCUGGAUUCCCCGACACUCAGCAGGGCAUCUCUGAGAGAAGUGCC [U13C A65G A69C U112C U115A A142G]	0
UACGUAGGUGGUCUUCCCCUGAUAGUGCUAAGGGGGCCUGGAAGUUUGGACUGGGCAGAGCUCAGCGCAGCGUGGCAAAGUGGCUGAGGCUAGACUGCCUCUCUGGAUUCCUCGUCACUUAGCAGGGCAUCUCUGAGAGAAAUGCC [U13C A65G A67G U87A C120U]	0.11
UACGUAGGUGGUCUUCCCCUGAUAGUGCUAAGGGGGCCUGGAAGUUUGGACUGGGCAGGGCUCAACACAGCGUGGCAUAGUGGCUGUGGCUAGACUGCCUCUCUGGAUUCCUCGUCACUCAGCAGGGCAUCUCUGAGAGAAAUGCC [U13C A59G A78U]	0.04
UACGUAGGUGGUCUUCCCCUGAUAGUGCUAAGGGGGCCUGGAAGUUUGGACUGGGCAGAGCUCAACACAGCGUGGCAGAGUGGCUGUGGCUAGACAGCCUCUCUGGAUUCCUCGUCACUCAGCAGGGCAUCUCUGAGAGAAAUGCC [U13C A78G U96A]	0.1
UACGUAGGUGGUCUUCCCCUGAUAGUGCUAAGGGGGCCUGGAAGUUUGGACUGGGCAGGGCUCAACACAGCGUGGCAAAGAGGCUGUGGCUAGACUGCCUCUCUGGAUUCCUCGUCACUCAGCAGGGCAUCUCUGAGAGAGAUGCC [U13C A59G U81A A141G]	0.19
UACGUAGGUGGUCUUCCCCUGAUAGUGCUAAGGGGGCCUGGAAGUUUGGACUGGGCAGAGCUCAGCACAGCGUGGCAAAGAGGCUGUGGCUAGACUGCCUCUCUGGAUUCCUCGUCACUCAGCAGGGCAUCUCUGAGAGAAAUGCC [U13C A65G U81A]	0.35
UACGUAGGUGGUCUUCCCCUGAUAGUGCUAAGGGGGCCUGGAAGUUUGGACUGGGCAGAGCUCAUCACAGCGUGGCAAAGUGGCUGUGGCUAGACUGCCUCUCUGGAUUCCUCGUCACUCAGCAGGGCAUCUCUGAGGGAAAUGCC [U13C A65U A138G]	0.32
UACGUAGGUGGUCUUCCCCUGAUAGUGCUAAGGGGGCCUGGAAGUUUGGACUGGGCAGAGCUCAGCUCAGCGUGGCAAAGUGGCUGUGGCUAGACUGCCUCUCUGGAUUCCUCGUCACUCAGCAGGGCAUCUCUGAGGGAAGUGCC [U13C A65G A67U A138G A142G]	0
UACGUAGGUGGUCUUCCCCUGAUAGUGCUAAGGGGGCCUGGAAGUUUGGACUGGGCAGGGCACAACACAGCGUGGCUGAGUGGCUGUGGCUAGACUGCCUCUCUGGAUUCCUCGUCACUCAGCAGGGCAUCUCUGAGAGAAAUGCC [U13C A59G U62A A77U A78G]	0.38
UACGUAGGUGGUCUUCCCCUGAUAGUGCUAAGGGGGCCUGGAAGUUUGGACUGGGCAGAGCUCAACGCAGCGUGGCAAGGUGGCUGUGGCUAGACUGCCUCCCUGGAUUCCUCGUCACUCAGCAGGGCAUCUCUGAGAGAAAUGCC [U13C A67G A79G U102C]	0
UACGUAGGUGGUCUUCCCCUGAUAGUGCUAAGGGGGCCUGGAAGUUUGGACUGGGCGGAGCUCAACACAGCGUGGCAAAGUGGCUGUGGCUAGACUGCCUCUCUGGAUUCCUCGUCGCUCAGCAGGGCAUCUCUGAGAGAAAUGCC [U13C A57G A117G]	0.38
UACGUAGGUGGUCUUCCCCUGAUAGUGCUAAGGGGGCCUGGAAGUUUGGACUGGGCGGAGCUCAACACAGCGUGGCAAAGUGGCUGUGGCUAGACUGCCUCUCUGGAUUCCUCGUCACUCAGCAGGGCAUCUCUGAGAGGAAUGCC [U13C A57G A140G]	0.82
UACGUAGGUGGUCUUCCCCUGAUAGUGCUAAGGGGGCCUGGAAGUUUGGACUGGGCAGAGCUCAUCACAGCGUGGCAAAGUGGCUGCGGCUAGACAGCCUCUCUGGAUUCCUCGUCACUCAGCUGGGCAUCUCUGAGAGAAAUGCC [U13C A65U U87C U96A A124U]	0

Variant	self-cleavage
UACGUAGGUGGUCUUCCCCUGAUAGUGCUAAGGGGGCCUGGAAGUUUGGACUGGGCGGAGCUCAACACAGCGUGGCAAAGUGGCUGUGGCUAGACUGCCUCUCUGGUUUCCUCGUCACUCAGCAGGGCAUCUCUGAGAGAAAUGCC [U13C A57G A107U]	1.33
UACGUAGGUGGUCUUCCCCUGAUAGUGCUAAGGGGGCCUGGAAGUUUGGACUGGGCAGAGCUCAACACGGCGUGGCAAAGUGGCUGUGGCUGGACUGCCUCUCUGGAUUCCUCGUUACUCAGCAGGGCAUCUCUGAGAGAAAUGCC [U13C A69G A92G C116U]	0.12
UACGUAGGUGGUCUUCCCCUGAUAGUGCUAAGGGGGCCUGGAAGUUUGGACUGGGCAGAGCUCAGCACAGCGUGGCAAAGUGGCUGUGGCUAGUCUGCCUCUCUGGAUUCCUCGUCACUCAGCAGGGCAUCUCUGAGAGAAAUGCC [U13C A65G A94U]	0.12
UACGUAGGUGGUCUUCCCCUGAUAGUGCUAAGGGGGCCUGGAAGUUUGGACUGGGCAGAGCUCAACACGGCGUGGCAAAGUGGCUGUGGCUAAACUGCCUCUCUGGAUUCCUCGUCACUCAGCAGGGCAUCUCUGAGAGAAAUGCC [U13C A69G G93A]	0.14
UACGUAGGUGGUCUUCCCCUGAUAGUGCUAAGGGGGCCUGGAAGUUUGGACUGGGCAGAGCUCAACACGGCGUGGCAAAGUGGCUGUGGCUAGACUGCCUCUCUGAAUUCCUCGUCACUCAGCAGGGCAUCUCUGAGAGAAAUGCC [U13C A69G G106A]	0.44
UACGUAGGUGGUCUUCCCCUGAUAGUGCUAAGGGGGCCUGGAAGUUUGGACUGGGCAGAGCUCAACACGGCGUGGCAAAGUGGCUGUAGCUAGACUGCCUCUCUGGAUUCCUCGUCACUCAGCAGGGCAUCUCUGAGAGAAAUGCC [U13C A69G G88A]	0.11
UACGUAGGUGGUCUUCCCCUGAUAGUGCUAAGGGGGCCUGGAAGUUUGGACUGGGCAGAGCUCAGCACAGCGUGGCAAAGUGGCUGUGGCUAGACAGCCUCUCUGGAUUCCUCGUCGCUCAGCAGGGCAUCUCUGAGAGAAAUGCC [U13C A65G U96A A117G]	0
UACGUAGGUGGUCUUCCCCUGAUAGUGCUAAGGGGGCCUGGAAGUUUGGACUGGGCAGAGCUCAACACUGCGUGGCAAUGUGGCAGUGGCUAGACUGCCUCUCUGGAUUCCUCGUCACUCAGCAGGGCAUCCCUGAGAGAAAUGCC [U13C A69U A79U U85A U132C]	1
UACGUAGGUGGUCUUCCCCUGAUAGUGCUAAGGGGGCCUGGAAGUUUGGACUGGGCUGAGCUCAACACAGCGUGGCAUAGUGGCUGUGGCUAGACUGCCUCUCUGGAUUCCUCGUCACUCAGCAGGGCAUCUCUGAGAGAAAUGCC [U13C A57U A78U]	0.3
UACGUAGGUGGUCUUCCCCUGAUAGUGCUAAGGGGGCCUGGAAGUUUGGACUGGGCGGAGCUCAACACAGCGUGGCAAAGAGGCUGUGGCUAGACUGCCUCUCUGGAUUCCUCGUCACUCAGCAGGGCAUCCCUGAGAGAAAUGCC [U13C A57G U81A U132C]	1.19
UACGUAGGUGGUCUUCCCCUGAUAGUGCUAAGGGGGCCUGGAAGUUUGGACUGGGCAGAGCUCCACACAGCGUGGCAAAGUGGCUGUGGCUAGACUGCCUCUCUGGAUUCCUCGUCACUCAGCAGGGCAUCUCUGAGGGAAAUGCC [U13C A64C A138G]	0.64
UACGUAGGUGGUCUUCCCCUGAUAGUGCUAAGGGGGCCUGGAAGUUUGGACUGGGCAGAGCUCAACACGGCGUGGCAAAGUGGCUGUGGCUAGACUGCCUCUCUGGAUUCCUCGUCACUCAGCAGGGCAUCUCCGAGAGAAAUGCC [U13C A69G U134C]	0.75
UACGUAGGUGGUCUUCCCCUGAUAGUGCUAAGGGGGCCUGGAAGUUUGGACUGGGCAGAGCUCAACACAGCGUGGCGAAGUGGCUGUGGCUAGACUGCCUCUCUGGAUUCCACGUCACUCAGCAGGGCAUCUCUGAGAGAAAUGCC [U13C A77G U112A]	1.53
UACGUAGGUGGUCUUCCCCUGAUAGUGCUAAGGGGGCCUGGAAGUUUGGACUGGGCAGAGCUCAACACGGCGUGGCAAAGUGGCUGUGGCUAGACUGCCUCUCUGGAUUCCUCGACACUCAGCAGGGCAUCUCUGAGAGAAAUGCC [U13C A69G U115A]	0.7
UACGUAGGUGGUCUUCCCCUGAUAGUGCUAAGGGGGCCUGGAAGUUUGGACUGGGCAGAGCUCAGCACAGCGUGGCAAAGUGGCUGUGGCUAGUCUGCCUCUCUGGAUUCCUCGUCGCUCAGCAGGGCAUCUCUGAGAGAAAUGCC [U13C A65G A94U A117G]	0.34
UACGUAGGUGGUCUUCCCCUGAUAGUGCUAAGGGGGCCUGGAAGUUUGGACUGGGCAGAGCUCAGCACAGCGUGGCAAAGUGGCUGUGGCAAGACUGCCUCUCUGGAUUCCUCGUCACUCAGCAGGGCAUCUCUGAGAGAAAUGCC [U13C A65G U91A]	0.07
UACGUAGGUGGUCUUCCCCUGAUAGUGCUAAGGGGGCCUGGAAGUUUGGACUGGGCAGUGCUCAACACAGCGUGGCAAGGUGGCUGUGGCUAGACUGCCUCUCUGGAUUCCUCGUCACUCAGCAGGGCAUCUCUGAGAGAGAUGCC [U13C A59U A79G A141G]	0.32
UACGUAGGUGGUCUUCCCCUGAUAGUGCUAAGGGGGCCUGGAAGUUUGGACUGGGCAGAGCUCAACACAGCGUGGCAGAGUGGCUGUUGCUAGACUGCCUCUCUGGAUUCCUCGUCACUCAGCAGGGCAUCUCUGAGAGAAAUGCC [U13C A78G G88U]	0.14
UACGUAGGUGGUCUUCCCCUGAUAGUGCUAAGGGGGCCUGGAAGUUUGGACUGGGCAGAGCUCAACACAGCGUGGCAUAGUGGCUGCGGCUAGACUGCCUCUCUGGAUUCCUCGUCACUCAGCAGGGCAUCUCUGAGGGAAAUGCC [U13C A78U U87C A138G]	0.45
